# Laboratory results taken from the supplement of paper PMC8728848.
# The other results are listed elsewhere or left out.
# How the values were obtained:
# Test in all cases: glycan array binding signal (z-score within array); higher = stronger binding
# Settings in all cases: glycan notation: IUPAC condensed, linker removed
# [1] = molecular target: Gal(b1-3)[Fuc(a1-4)]GlcNAc
# Method in brief: (§1)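 Negative Z-scores can be read as non-binding. The Z-score is calculated within each array and then averaged across arrays of one protein sequence at different concentrations or buffers and across linkers. Arrays, 3228 in all, were curated from the Consortium for Functional Glycomics database and kept only where the protein sequence was available.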
# [2] = molecular target: Gal(b1-3)[Fuc(a1-4)]GlcNAc(b1-2)Man(a1-3)[Gal(b1-3)[Fuc(a1-4)]GlcNAc(b1-2)Man(a1-6)]Man(b1-4)GlcNAc(b1-4)GlcNAc
# Method in brief: as §1
# [3] = molecular target: Gal(b1-3)[Fuc(a1-4)]GlcNAc(b1-2)Man(a1-3)[Gal(b1-3)[Fuc(a1-4)]GlcNAc(b1-2)Man(a1-6)]Man(b1-4)GlcNAc(b1-4)[Fuc(a1-6)]GlcNAc
# Method in brief: as §1
# [4] = molecular target: Gal(b1-3)[Fuc(a1-4)]GlcNAc(b1-3)Gal(b1-3)[Fuc(a1-4)]GlcNAc
# Method in brief: as §1
# [5] = molecular target: Gal(b1-3)[Fuc(a1-4)]GlcNAc(b1-3)Gal(b1-4)GlcNAc
# Method in brief: as §1
# [6] = molecular target: Gal(b1-3)[Fuc(a1-4)]GlcNAc(b1-3)Gal(b1-4)[Fuc(a1-3)]GlcNAc
# Method in brief: as §1
# [7] = molecular target: Gal(b1-3)[GlcNAc(b1-6)]GalNAc
# Method in brief: as §1
# [8] = molecular target: Gal(b1-3)[Neu5Ac(a2-6)]GalNAc
# Method in brief: as §1
# [9] = molecular target: Gal(b1-3)[Neu5Ac(a2-6)]GlcNAc(b1-6)Gal(b1-4)Glc
# Method in brief: as §1
# [10] = molecular target: Gal(b1-3)[Neu5Ac(b2-6)]GalNAc
# Method in brief: as §1
# [11] = molecular target: Gal(b1-4)GalNAc(a1-3)[Fuc(a1-2)]Gal(b1-4)GlcNAc
# Method in brief: as §1
# [12] = molecular target: Gal(b1-4)GalNAc(b1-3)[Fuc(a1-2)]Gal(b1-4)GlcNAc
# Method in brief: as §1
# [13] = molecular target: Gal(b1-4)Glc
# Method in brief: as §1
# [14] = molecular target: Gal(b1-4)Glc6S
# Method in brief: as §1
# [15] = molecular target: Gal(b1-4)GlcNAc
# Method in brief: as §1
# [16] = molecular target: Gal(b1-4)GlcNAc(a1-6)Gal(b1-4)GlcNAc
# Method in brief: as §1
# [17] = molecular target: Gal(b1-4)GlcNAc(b1-2)Man(a1-3)Man(b1-4)GlcNAc(b1-4)GlcNAc
# Method in brief: as §1
# [18] = molecular target: Gal(b1-4)GlcNAc(b1-2)Man(a1-3)[Gal(b1-4)GlcNAc(b1-2)Man(a1-6)]Man(b1-4)GlcNAc(b1-4)GlcNAc
# Method in brief: as §1
# [19] = molecular target: Gal(b1-4)GlcNAc(b1-2)Man(a1-3)[Gal(b1-4)GlcNAc(b1-2)Man(a1-6)]Man(b1-4)GlcNAc(b1-4)[Fuc(a1-6)]GlcNAc
# Method in brief: as §1
# [20] = molecular target: Gal(b1-4)GlcNAc(b1-2)Man(a1-3)[Man(a1-6)]Man(b1-4)GlcNAc(b1-4)GlcNAc
# Method in brief: as §1
# [21] = molecular target: Gal(b1-4)GlcNAc(b1-2)Man(a1-6)Man(b1-4)GlcNAc(b1-4)GlcNAc
# Method in brief: as §1
# [22] = molecular target: Gal(b1-4)GlcNAc(b1-2)Man(a1-6)[Man(a1-3)]Man(b1-4)GlcNAc(b1-4)GlcNAc
# Method in brief: as §1
# [23] = molecular target: Gal(b1-4)GlcNAc(b1-2)[Gal(b1-4)GlcNAc(b1-4)]Man(a1-3)[Gal(b1-4)GlcNAc(b1-2)Man(a1-6)]Man(b1-4)GlcNAc(b1-4)GlcNAc
# Method in brief: as §1
# [24] = molecular target: Gal(b1-4)GlcNAc(b1-3)Gal(b1-3)GlcNAc
# Method in brief: as §1
# [25] = molecular target: Gal(b1-4)GlcNAc(b1-3)Gal(b1-4)Glc
# Method in brief: as §1
# [26] = molecular target: Gal(b1-4)GlcNAc(b1-3)Gal(b1-4)GlcNAc
# Method in brief: as §1
# [27] = molecular target: Gal(b1-4)GlcNAc(b1-3)Gal(b1-4)GlcNAc(b1-3)Gal(b1-4)GlcNAc
# Method in brief: as §1
# [28] = molecular target: Gal(b1-4)GlcNAc(b1-3)Gal(b1-4)[Fuc(a1-3)]GlcNAc(b1-3)Gal(b1-4)[Fuc(a1-3)]GlcNAc
# Method in brief: as §1
# [29] = molecular target: Gal(b1-4)GlcNAc(b1-3)GalNAc
# Method in brief: as §1
# [30] = molecular target: Gal(b1-4)GlcNAc(b1-3)[Gal(b1-4)GlcNAc(b1-6)]Gal(b1-4)GlcNAc
# Method in brief: as §1
binder,measurement,setting,value
"Sialidase (Vibrio cholerae), P37060 (protein) GAMALFDYNATGDTEFDSPAKQGWMQDNTNNGSGVLTNADGMPAWLVQGIGGRAQWTYSLSTNQHAQASSFGWRMTTEMKVLSGGMITNYYANGTQRVLPIISLDSSGNLVVEFEGQTGRTVLATGTAATEYHKFELVFLPGSNPSASFYFDGKLIRDNIQPTASKQNMIVWGNGSSNTDGVAAYRDIKFEIQGDALNGSMALFDYNATGDTEFDSPAKQGWMQDNTNNGSGVLTNADGMPAWLVQGIGGRAQWTYSLSTNQHAQASSFGWRMTTEMKVLSGGMITNYYANGTQRVLPIISLDSSGNLVVEFEGQTGRTVLATGTAATEYHKFELVFLPGSNPSASFYFDGKLIRDNIQPTASKQNMIVWGNGSSNTDGVAAYRDIKFEIQGDLQALGMALFDYNATGDTEFDSPAKQGWMQDNTNNGSGVLTNADGMPAWLVQGIGGRAQWTYSLSTNQHAQASSFGWRMTTEMKVLSGGMITNYYANGTQRVLPIISLDSSGNLVVEFEGQTGRTVLATGTAATEYHKFELVFLPGSNPSASFYFDGKLIRDNIQPTASKQNMIVWGNGSSNTDGVAAYRDIKFEIQGD",glycan array binding signal (z-score),[1],-0.364
same,glycan array binding signal (z-score),[2],-0.451
same,glycan array binding signal (z-score),[3],-0.619
same,glycan array binding signal (z-score),[4],-0.247
same,glycan array binding signal (z-score),[5],-0.548
same,glycan array binding signal (z-score),[6],-0.103
same,glycan array binding signal (z-score),[7],-0.491
same,glycan array binding signal (z-score),[8],0.288
same,glycan array binding signal (z-score),[9],-0.633
same,glycan array binding signal (z-score),[10],-0.328
same,glycan array binding signal (z-score),[11],-0.557
same,glycan array binding signal (z-score),[12],-0.393
same,glycan array binding signal (z-score),[13],-0.247
same,glycan array binding signal (z-score),[14],-0.075
same,glycan array binding signal (z-score),[15],-0.398
same,glycan array binding signal (z-score),[16],-0.663
same,glycan array binding signal (z-score),[17],0.793
same,glycan array binding signal (z-score),[18],-0.669
same,glycan array binding signal (z-score),[19],-0.571
same,glycan array binding signal (z-score),[20],-0.659
same,glycan array binding signal (z-score),[21],0.199
same,glycan array binding signal (z-score),[22],0.086
same,glycan array binding signal (z-score),[23],-0.303
same,glycan array binding signal (z-score),[24],0.253
same,glycan array binding signal (z-score),[25],0.066
same,glycan array binding signal (z-score),[26],-0.564
same,glycan array binding signal (z-score),[27],0.602
same,glycan array binding signal (z-score),[28],-0.411
same,glycan array binding signal (z-score),[29],-0.245
same,glycan array binding signal (z-score),[30],-0.333
